Laboratory results published in patent publication US20250295648A1 (priority 2024, published 2025).
Values joined by “and” are separate entries in the source; they are usually repeats but may differ in a detail not shown here. Equal values may be shown once.

System: patients with moderate to severe L-DOPA-induced dyskinesia (LID) in Parkinson's disease
Assay: Phase 2a study: adverse events (frequency, intensity, seriousness, causality), tolerability

Cc1ccc(CNCC2(F)CCN(C(=O)c3ccc(F)c(Cl)c3)CC2)nc1 [NLX-112, (3-chloro-4-fluoro-phenyl)-[4-fluoro-4-{[(5-methyl-pyridin-2-ylmethyl)-amino]-methyl}piperidin-1-yl]methanone]
Micturition urgency: subjects n (in vivo): 1
Muscle spasms: events m (in vivo): 1
Muscle spasms: subjects % (in vivo): (5.6%)
Muscle spasms: subjects n (in vivo): 1
Musculoskeletal and connective tissue disorders (SOC): events m (in vivo): 6
Musculoskeletal and connective tissue disorders (SOC): subjects % (in vivo): (28%)
Musculoskeletal and connective tissue disorders (SOC): subjects n (in vivo): 5
Musculoskeletal stiffness: events m (in vivo): 1
Musculoskeletal stiffness: subjects % (in vivo): (5.6%)
Musculoskeletal stiffness: subjects n (in vivo): 1
Nasopharyngitis: events m (in vivo): 1
Nasopharyngitis: subjects % (in vivo): (5.6%)
Nasopharyngitis: subjects n (in vivo): 1
Nausea: events m (in vivo): 4
Nausea: events, m (in vivo): 2 and 1
Nausea: subjects % (in vivo): (22%)
Nausea: subjects n (in vivo): 4
Neck pain: events m (in vivo): 0
Neck pain: subjects n (in vivo): 0
Nervous system disorders (SOC): events m (in vivo): 16
Nervous system disorders (SOC): subjects % (in vivo): (56%)
Nervous system disorders (SOC): subjects n (in vivo): 10
On and off phenomenon: events m (in vivo): 1
On and off phenomenon: subjects % (in vivo): (5.6%)
On and off phenomenon: subjects n (in vivo): 1
Orthostatic hypotension (AE): events m (in vivo): 2
Orthostatic hypotension (AE): subjects n (in vivo): 2
Orthostatic hypotension: subjects, % (in vivo): (13) %
Pain in extremity: events m (in vivo): 1
Pain in extremity: subjects % (in vivo): (5.6%)
Pain in extremity: subjects n (in vivo): 1
Palpitations: events m (in vivo): 1
Palpitations: subjects % (in vivo): (5.6%)
Palpitations: subjects n (in vivo): 1
Parkinsonism: events m (in vivo): 3
Parkinsonism: subjects % (in vivo): (17%)
Parkinsonism: subjects n (in vivo): 3
Parkinsonism: subjects, % (in vivo): (17) %
Parosmia: events m (in vivo): 1
Parosmia: subjects % (in vivo): (5.6%)
Parosmia: subjects n (in vivo): 1
Pollakiuria: events m (in vivo): 1
Pollakiuria: subjects % (in vivo): (5.6%)
Pollakiuria: subjects n (in vivo): 1
Product communication issue: events m (in vivo): 1
Product communication issue: subjects % (in vivo): (5.6%)
Product communication issue: subjects n (in vivo): 1
Psychiatric disorders (SOC): events m (in vivo): 9
Psychiatric disorders (SOC): subjects % (in vivo): (33%)
Psychiatric disorders (SOC): subjects n (in vivo): 6
Rapid eye movement sleep behaviour disorder: events m (in vivo): 1
Rapid eye movement sleep behaviour disorder: subjects % (in vivo): (5.6%)
Rapid eye movement sleep behaviour disorder: subjects n (in vivo): 1
Renal and urinary disorders (SOC): events m (in vivo): 2
Renal and urinary disorders (SOC): subjects % (in vivo): (11%)
Renal and urinary disorders (SOC): subjects n (in vivo): 2
Restless legs syndrome: events m (in vivo): 2
Restless legs syndrome: subjects n (in vivo): 2
Rhinitis: events m (in vivo): 0
Rhinitis: subjects n (in vivo): 0
SAE Congenital Anomaly or Birth Defect (CA or BD): events m (in vivo): 0
SAE Congenital Anomaly or Birth Defect (CA or BD): subjects n (in vivo): 0
SAE Congenital Anomaly or Birth Defect: events m (in vivo): 0
SAE Congenital Anomaly or Birth Defect: subjects n (in vivo): 0
SAE Is Life Threatening (ILT): events m (in vivo): 0
SAE Is Life Threatening (ILT): subjects n (in vivo): 0
SAE Is Life Threatening: events m (in vivo): 0
SAE Is Life Threatening: subjects n (in vivo): 0
SAE Other Medically Important Serious Event (OMISE): events m (in vivo): 0
SAE Other Medically Important Serious Event (OMISE): subjects n (in vivo): 0
SAE Other Medically Important Serious Event: events m (in vivo): 0
SAE Other Medically Important Serious Event: subjects n (in vivo): 0
SAE Requires or Prolongs Hospitalization (RPH): events m (in vivo): 0
SAE Requires or Prolongs Hospitalization (RPH): subjects n (in vivo): 0
SAE Requires or Prolongs Hospitalization: events m (in vivo): 0
SAE Requires or Prolongs Hospitalization: subjects n (in vivo): 0
Sleep disorder: events m (in vivo): 1
Sleep disorder: subjects % (in vivo): (5.6%)
Sleep disorder: subjects n (in vivo): 1
Somnolence: events m (in vivo): 1
Somnolence: subjects % (in vivo): (5.6%)
Somnolence: subjects n (in vivo): 1
Stress: events m (in vivo): 1
Stress: subjects % (in vivo): (5.6%)
Stress: subjects n (in vivo): 1
Surgical and medical procedures (SOC): events m (in vivo): 2
Surgical and medical procedures (SOC): subjects % (in vivo): (5.6%)
Surgical and medical procedures (SOC): subjects n (in vivo): 1
Swelling of eyelid: events m (in vivo): 1
Swelling of eyelid: subjects % (in vivo): (5.6%)
Swelling of eyelid: subjects n (in vivo): 1
Syncope: events m (in vivo): 0
Syncope: subjects n (in vivo): 0
Systolic hypertension: events m (in vivo): 1
Systolic hypertension: subjects % (in vivo): (5.6%)
Systolic hypertension: subjects n (in vivo): 1
Taste disorder: events m (in vivo): 0
Taste disorder: subjects n (in vivo): 0
Tinnitus: events m (in vivo): 1
Tinnitus: subjects % (in vivo): (5.6%)
Tinnitus: subjects n (in vivo): 1
Vascular disorders (SOC): events m (in vivo): 3
Vascular disorders (SOC): subjects % (in vivo): (17%)
Vascular disorders (SOC): subjects n (in vivo): 3
Vertigo: events m (in vivo): 2
Vertigo: subjects n (in vivo): 2
Vertigo: subjects, % (in vivo): (11) %
Vomiting: events m (in vivo): 2
Vomiting: subjects n (in vivo): 2
Vomiting: subjects, % (in vivo): (11) %
highest titration dose 1.0 mg: patients % (in vivo): 6.7%
highest titration dose 1.0 mg: patients n (in vivo): 1
highest titration dose 1.75 mg: patients % (in vivo): 13.3%
highest titration dose 1.75 mg: patients n (in vivo): 2
highest titration dose 2.0 mg: patients % (in vivo): 80%
highest titration dose 2.0 mg: patients n (in vivo): 12
intensity of all AEs reported by patients on NLX-112 (in vivo): mild to moderate
number of adverse events per patient (in vivo): 71/18
number of adverse events per patient, higher than placebo group (in vivo): about 11%
number of dizziness adverse events per patient (in vivo): 2/18
overall safety and tolerability in Parkinson's disease patients (in vivo): safe and well tolerated
patients with AEs that led to dose reductions or dose interruptions (in vivo): 4
proportion of patients experiencing an adverse event, higher than placebo group (in vivo): 11%
Oral pain: events m (in vivo, po): 1
Oral pain: subjects % (in vivo, po): (5.6%)
Oral pain: subjects n (in vivo, po): 1
Skin and subcutaneous tissue disorders (SOC): events m (in vivo, sc): 0
Skin and subcutaneous tissue disorders (SOC): subjects n (in vivo, sc): 0
AE severity Death: events m (steady state (NS), N=15): 0
AE severity Death: subjects n (steady state (NS), N=15): 0
Any AE leading to death: events m (steady state (NS), N=15): 0
Any AE leading to death: subjects n (steady state (NS), N=15): 0
SAE Persistent or Significant Disability/Incapacity (PSD/I): events m (steady state (NS), N=15): 0
SAE Persistent or Significant Disability/Incapacity (PSD/I): subjects n (steady state (NS), N=15): 0
AE severity Death: events m (up-titration (NU), N=18): 0
AE severity Death: subjects n (up-titration (NU), N=18): 0
Any AE leading to death: events m (up-titration (NU), N=18): 0
Any AE leading to death: subjects n (up-titration (NU), N=18): 0
SAE Persistent or Significant Disability/Incapacity (PSD/I): events m (up-titration (NU), N=18): 0
SAE Persistent or Significant Disability/Incapacity (PSD/I): subjects n (up-titration (NU), N=18): 0
